Test results: publication PMC2518271
No constants are given. Whether binding was seen depends on the method and setting. In cells and extracts the contact can be indirect. Some binding calls cover weakened binding; strength is not graded here. Where a sequence is shown, tags or fusion partners need not be part of it.

Sequences of proteins named here, by UniProt entry; tags and fusion partners are left off.
UniProt P46821: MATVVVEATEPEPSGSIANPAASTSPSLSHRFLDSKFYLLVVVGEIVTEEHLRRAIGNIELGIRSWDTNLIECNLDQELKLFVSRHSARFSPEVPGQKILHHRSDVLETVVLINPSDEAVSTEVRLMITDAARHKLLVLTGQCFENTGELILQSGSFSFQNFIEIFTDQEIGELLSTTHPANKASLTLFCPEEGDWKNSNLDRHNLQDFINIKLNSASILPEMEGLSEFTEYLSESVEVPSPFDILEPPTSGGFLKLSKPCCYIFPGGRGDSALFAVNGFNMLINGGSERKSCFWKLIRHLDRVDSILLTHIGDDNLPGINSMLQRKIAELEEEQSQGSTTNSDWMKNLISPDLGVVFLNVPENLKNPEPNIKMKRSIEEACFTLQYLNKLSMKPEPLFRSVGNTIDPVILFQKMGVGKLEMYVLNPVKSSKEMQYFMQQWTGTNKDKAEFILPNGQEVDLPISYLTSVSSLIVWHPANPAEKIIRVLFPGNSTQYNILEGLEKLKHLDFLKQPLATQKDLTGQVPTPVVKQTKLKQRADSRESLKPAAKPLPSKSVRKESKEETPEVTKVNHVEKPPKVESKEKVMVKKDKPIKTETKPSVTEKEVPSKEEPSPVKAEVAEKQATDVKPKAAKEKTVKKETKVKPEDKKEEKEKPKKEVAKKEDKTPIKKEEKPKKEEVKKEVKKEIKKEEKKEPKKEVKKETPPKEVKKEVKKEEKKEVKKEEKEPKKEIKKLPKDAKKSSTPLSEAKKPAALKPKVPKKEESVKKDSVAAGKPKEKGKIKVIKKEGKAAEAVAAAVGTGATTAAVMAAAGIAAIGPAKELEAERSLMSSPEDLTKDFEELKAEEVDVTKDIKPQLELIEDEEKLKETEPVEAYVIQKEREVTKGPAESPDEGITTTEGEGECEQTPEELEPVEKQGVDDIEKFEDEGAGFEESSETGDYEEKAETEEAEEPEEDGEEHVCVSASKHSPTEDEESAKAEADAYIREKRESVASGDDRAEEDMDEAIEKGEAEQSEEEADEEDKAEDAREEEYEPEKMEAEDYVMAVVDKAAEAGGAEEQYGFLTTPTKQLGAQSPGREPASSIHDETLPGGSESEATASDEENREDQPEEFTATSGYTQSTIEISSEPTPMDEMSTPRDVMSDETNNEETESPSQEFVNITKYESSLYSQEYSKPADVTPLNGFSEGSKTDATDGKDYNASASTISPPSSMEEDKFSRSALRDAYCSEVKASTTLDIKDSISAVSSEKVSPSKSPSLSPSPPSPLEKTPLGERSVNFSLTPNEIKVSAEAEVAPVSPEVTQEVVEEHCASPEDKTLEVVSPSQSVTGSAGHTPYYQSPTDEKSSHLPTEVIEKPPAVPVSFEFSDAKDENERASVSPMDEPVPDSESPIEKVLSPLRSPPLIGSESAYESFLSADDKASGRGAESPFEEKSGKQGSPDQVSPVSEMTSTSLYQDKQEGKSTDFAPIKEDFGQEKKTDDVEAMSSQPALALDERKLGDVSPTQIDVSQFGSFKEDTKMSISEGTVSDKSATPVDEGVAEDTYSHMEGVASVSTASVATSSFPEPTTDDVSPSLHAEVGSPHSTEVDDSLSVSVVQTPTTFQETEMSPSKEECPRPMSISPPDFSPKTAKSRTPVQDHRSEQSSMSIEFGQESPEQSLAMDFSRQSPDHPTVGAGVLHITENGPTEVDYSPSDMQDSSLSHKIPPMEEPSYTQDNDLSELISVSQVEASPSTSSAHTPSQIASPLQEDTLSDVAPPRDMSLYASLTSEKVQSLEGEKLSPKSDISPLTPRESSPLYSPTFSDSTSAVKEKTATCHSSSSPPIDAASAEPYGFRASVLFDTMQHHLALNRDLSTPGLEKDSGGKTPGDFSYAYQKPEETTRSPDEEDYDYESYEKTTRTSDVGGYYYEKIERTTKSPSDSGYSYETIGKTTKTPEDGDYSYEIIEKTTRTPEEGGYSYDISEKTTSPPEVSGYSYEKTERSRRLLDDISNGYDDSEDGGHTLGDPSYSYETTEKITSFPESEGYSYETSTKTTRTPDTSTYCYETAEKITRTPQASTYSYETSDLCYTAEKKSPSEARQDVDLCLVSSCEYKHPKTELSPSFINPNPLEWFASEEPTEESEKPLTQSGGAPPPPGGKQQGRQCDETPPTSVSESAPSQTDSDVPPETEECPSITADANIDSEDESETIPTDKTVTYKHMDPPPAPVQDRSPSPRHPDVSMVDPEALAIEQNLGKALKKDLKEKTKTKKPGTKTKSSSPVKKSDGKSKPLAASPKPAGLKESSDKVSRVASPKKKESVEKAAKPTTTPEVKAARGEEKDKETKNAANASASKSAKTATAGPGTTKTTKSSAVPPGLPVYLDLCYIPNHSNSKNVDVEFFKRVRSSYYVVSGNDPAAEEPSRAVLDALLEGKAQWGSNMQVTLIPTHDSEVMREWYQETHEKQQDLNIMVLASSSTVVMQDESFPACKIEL

Tests used:
[1] = molecular target: T1, FLAG-tagged NORE1A C-terminal portion (amino acids 250–416) (UniProt Q8WWW0); experiment: co-IP; HEK293 cells transfected with FLAG-tagged NORE1A constructs; lysates precipitated for FLAG, precipitate probed with antibody against C19ORF5 and MAP1B
T1 sequence: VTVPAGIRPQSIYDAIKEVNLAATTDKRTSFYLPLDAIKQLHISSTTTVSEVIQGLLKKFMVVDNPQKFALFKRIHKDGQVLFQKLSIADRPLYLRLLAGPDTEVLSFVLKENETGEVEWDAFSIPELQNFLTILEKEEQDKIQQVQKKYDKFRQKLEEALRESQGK

[2] = molecular target: T2, FLAG-tagged NORE1A N-terminal portion (amino acids 1–268) (UniProt Q8WWW0); experiment: as above
T2 sequence: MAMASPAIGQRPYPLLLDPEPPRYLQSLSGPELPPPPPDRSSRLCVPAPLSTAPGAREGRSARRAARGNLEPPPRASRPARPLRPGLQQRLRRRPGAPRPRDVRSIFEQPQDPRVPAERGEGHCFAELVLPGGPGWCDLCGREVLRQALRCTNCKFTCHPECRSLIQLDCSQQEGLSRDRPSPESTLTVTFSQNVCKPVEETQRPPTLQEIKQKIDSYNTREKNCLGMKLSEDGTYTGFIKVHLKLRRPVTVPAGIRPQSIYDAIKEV

[3] = molecular target: T3, FLAG-tagged NORE1A effector domain (amino acids 191–363) (UniProt Q8WWW0); experiment: as above
T3 sequence: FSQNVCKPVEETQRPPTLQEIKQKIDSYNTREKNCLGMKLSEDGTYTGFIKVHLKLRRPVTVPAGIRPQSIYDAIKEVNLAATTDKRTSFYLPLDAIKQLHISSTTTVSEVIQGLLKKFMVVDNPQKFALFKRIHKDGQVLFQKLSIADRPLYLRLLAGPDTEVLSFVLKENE

[4] = molecular target: T4, FLAG-tagged full-length NORE1A (UniProt Q8WWW0); experiment: as above
T4 sequence: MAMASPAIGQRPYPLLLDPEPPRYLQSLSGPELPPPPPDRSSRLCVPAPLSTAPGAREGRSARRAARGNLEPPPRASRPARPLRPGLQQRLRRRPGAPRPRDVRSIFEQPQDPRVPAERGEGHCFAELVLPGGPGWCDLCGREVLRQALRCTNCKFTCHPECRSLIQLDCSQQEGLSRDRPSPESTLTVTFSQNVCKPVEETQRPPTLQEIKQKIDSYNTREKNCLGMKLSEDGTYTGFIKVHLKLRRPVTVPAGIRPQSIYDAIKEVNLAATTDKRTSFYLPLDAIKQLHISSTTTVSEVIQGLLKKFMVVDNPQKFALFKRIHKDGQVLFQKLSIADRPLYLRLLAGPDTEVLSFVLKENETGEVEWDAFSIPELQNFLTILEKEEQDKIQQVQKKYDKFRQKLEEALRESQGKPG

[5] = molecular target: T5, hrGFP-tagged wild type NORE1A (UniProt Q8WWW0); experiment: co-IP; A549 cells infected with retrovirus coding for hrGFP-tagged NORE1A; cell extracts precipitated for NORE1A, precipitate probed with antibody against MAP1B
T5 sequence: T4 sequence

- binding [1]: no binding
- binding [2]: no binding
- binding [3]: binds
- binding [4]: binds
- binding [5]: binds
Substance: Microtubule-Associated Protein 1B (MAP1B), endogenous (from UniProt P46821 1-2468)
